No constants are given. Whether binding was seen depends on the method and setting. Binding seen in cells or lysates may run through a third protein. Some results given as binding are weak or reduced against the parent protein; the word gives no strength.
Columns and labels:
Test in all cases: co-IP; anti-Roquin-1/2 (Q4-2) coupled to tosylactivated Dynabeads; endogenous proteins from MEF cell lysates of the indicated genotypes; immunoblot
[1] = molecular target: T1, endogenous Roquin-1 (MEF cells) (mouse (endogenous in MEF)) (UniProt Q4VGL6)
T1 sequence: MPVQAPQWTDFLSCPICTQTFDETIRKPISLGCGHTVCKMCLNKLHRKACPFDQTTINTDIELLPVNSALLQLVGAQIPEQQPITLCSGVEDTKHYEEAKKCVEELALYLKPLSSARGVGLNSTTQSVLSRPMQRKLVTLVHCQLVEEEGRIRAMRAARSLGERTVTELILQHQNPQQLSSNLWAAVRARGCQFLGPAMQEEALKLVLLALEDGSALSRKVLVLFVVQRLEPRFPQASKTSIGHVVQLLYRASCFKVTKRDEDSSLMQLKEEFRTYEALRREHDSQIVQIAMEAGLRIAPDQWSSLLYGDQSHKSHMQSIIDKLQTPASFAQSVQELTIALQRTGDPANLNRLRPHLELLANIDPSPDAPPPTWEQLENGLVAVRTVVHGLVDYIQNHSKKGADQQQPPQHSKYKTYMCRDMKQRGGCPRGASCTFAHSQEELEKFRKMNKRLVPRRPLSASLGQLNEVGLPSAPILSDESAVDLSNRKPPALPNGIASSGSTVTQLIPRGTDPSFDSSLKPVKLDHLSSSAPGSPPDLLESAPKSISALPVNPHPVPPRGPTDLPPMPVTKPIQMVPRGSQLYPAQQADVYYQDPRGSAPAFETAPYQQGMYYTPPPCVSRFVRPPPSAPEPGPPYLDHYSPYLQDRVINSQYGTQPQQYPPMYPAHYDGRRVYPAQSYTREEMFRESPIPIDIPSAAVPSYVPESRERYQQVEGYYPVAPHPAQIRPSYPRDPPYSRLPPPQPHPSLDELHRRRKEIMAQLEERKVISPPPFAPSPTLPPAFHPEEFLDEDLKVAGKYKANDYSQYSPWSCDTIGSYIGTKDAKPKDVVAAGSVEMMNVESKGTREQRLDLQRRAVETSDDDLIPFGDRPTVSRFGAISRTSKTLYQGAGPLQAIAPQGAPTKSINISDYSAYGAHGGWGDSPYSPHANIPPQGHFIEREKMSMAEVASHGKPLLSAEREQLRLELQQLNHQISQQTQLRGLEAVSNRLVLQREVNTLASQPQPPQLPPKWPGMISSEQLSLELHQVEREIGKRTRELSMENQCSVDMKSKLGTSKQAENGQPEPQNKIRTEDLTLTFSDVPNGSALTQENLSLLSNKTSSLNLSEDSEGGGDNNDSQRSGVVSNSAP

[2] = molecular target: T2, endogenous Roquin-2 (MEF cells) (mouse (endogenous in MEF)) (UniProt P0C090)
T2 sequence: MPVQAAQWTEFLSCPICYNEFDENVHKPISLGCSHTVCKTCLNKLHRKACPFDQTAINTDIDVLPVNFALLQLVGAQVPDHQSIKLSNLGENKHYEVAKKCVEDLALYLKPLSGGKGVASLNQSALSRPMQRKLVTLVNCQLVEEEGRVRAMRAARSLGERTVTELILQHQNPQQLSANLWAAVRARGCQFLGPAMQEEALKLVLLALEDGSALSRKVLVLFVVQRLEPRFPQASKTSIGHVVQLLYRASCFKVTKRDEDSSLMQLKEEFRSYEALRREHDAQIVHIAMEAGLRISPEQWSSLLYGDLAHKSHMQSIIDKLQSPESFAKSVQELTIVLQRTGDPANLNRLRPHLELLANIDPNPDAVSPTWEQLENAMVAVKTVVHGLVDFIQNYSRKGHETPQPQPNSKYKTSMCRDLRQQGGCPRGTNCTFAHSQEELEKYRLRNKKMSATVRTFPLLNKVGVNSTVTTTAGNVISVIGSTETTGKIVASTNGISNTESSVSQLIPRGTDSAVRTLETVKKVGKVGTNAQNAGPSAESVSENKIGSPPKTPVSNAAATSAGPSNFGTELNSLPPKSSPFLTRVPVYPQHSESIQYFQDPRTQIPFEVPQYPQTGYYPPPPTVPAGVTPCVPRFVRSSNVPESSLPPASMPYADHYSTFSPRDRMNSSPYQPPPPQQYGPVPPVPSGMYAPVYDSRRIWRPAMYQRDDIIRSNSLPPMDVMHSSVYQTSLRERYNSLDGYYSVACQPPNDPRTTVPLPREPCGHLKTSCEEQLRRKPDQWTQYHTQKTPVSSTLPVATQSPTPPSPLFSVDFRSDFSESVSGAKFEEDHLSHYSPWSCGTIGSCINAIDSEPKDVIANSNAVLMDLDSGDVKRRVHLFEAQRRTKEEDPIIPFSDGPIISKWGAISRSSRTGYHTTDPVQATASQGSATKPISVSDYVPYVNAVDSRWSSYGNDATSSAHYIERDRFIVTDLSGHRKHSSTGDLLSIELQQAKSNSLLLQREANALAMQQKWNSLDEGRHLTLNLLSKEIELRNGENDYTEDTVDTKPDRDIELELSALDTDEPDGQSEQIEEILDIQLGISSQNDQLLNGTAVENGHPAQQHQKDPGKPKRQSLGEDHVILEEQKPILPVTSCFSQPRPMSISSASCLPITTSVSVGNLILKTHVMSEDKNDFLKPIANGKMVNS

[3] = molecular target: T3, sanroque mutant of Roquin-1 (Roquin-1 M199R) (mouse (endogenous in MEF)) (UniProt Q4VGL6)
T3 sequence: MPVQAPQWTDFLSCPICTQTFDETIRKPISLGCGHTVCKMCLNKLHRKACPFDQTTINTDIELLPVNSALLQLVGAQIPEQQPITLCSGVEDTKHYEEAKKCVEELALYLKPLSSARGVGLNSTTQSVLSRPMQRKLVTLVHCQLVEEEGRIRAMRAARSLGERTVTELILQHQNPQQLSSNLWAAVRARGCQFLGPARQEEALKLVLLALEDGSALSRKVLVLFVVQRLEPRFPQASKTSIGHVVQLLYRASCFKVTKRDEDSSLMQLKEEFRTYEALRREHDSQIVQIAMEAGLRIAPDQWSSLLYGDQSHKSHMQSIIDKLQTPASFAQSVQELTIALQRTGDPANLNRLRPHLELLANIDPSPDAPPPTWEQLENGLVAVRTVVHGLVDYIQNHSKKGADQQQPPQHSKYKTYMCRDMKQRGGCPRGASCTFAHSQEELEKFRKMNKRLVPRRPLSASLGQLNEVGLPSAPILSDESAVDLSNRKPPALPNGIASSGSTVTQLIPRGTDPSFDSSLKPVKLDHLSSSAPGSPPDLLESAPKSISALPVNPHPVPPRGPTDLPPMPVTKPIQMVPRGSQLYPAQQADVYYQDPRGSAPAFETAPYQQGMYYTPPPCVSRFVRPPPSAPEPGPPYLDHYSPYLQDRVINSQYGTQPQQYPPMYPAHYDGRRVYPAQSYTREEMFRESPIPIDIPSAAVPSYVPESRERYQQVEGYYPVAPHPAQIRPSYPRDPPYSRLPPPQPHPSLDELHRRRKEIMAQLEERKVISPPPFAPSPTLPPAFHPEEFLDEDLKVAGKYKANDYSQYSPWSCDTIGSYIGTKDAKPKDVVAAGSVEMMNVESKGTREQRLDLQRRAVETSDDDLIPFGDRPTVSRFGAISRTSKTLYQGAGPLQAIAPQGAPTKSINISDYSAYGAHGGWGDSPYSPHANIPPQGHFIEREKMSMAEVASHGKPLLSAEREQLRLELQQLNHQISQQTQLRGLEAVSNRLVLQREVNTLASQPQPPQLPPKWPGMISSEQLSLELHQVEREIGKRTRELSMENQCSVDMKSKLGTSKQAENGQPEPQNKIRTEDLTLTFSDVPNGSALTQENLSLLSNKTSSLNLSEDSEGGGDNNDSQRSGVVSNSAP

Measured: binding

B1: endogenous Nufip2 (MEF cells) (protein, UniProt Q5F2E7 1-692)
chain: MEEKPGQPQPQHHHSHHHPHHHPQQQQQQQSHHHHHYYFYNHSHNHHHHHHHQQPHQYLQHGAEGSPKAQPKPLKHEQKHTLQQHQETPKKKTGYGEINGNAGEREISLKSLSSDEATNPISRVLNGNQQVVETSLKQTVKTSTFGKAGIKTKNFIQKNSMDKKNGKSYENKSGETQAVDKTDTIAIPNGVITSSSGYITNGYMSKGADNDGSGSESGYTTPKKRKARRNSAKGCENLNLVQDKIMQETSVPALKQGLETLKPDYSEQKGMRVDGSKPIWKYETGPGGTSRGKPAMGDVLRKSSDIKPGLSSKKFDDRPKGKHASAAASKEDSWTLFKPPPVFPVDNSSAKIVPKISYASKVKENLNKTVQNSSVSPSSSSSSSSTGETQTQSSSRLSQVPMSALKSVTSASFSNGPVLAGTDGSVYPSGGQPLLTTAANTLTPISTGTDSVLQDMSLASAAVEQIKSSLFIYPSNMQTVLLSAQVDLPSQTDQQNLGDIFQNQWGLSFINEPSAGPETVIGKSSDHKVMEVTFQGEYPATLVSQGAEIIPSGTEHPVFPKAYELEKRTSPQVLGHILKPGTTESGALSLDPSHIGDLQKADTSSQGALVFLSKDYEIENQNPLASPTNTLLGSAKEQRYQRGLERNDSWGSFDLRAAIVYHTKEMESIWNLQKQDPKRIITYNEAMDSPDQ
binds: [1] | [2] | [3]
